# Measured values: the supplement of paper PMC11880418
# Structures can show the parent of a compound that is named as a salt. The list shows a part of the results. The data scatter; read single values as rough. Starred links: 1 amine or outer side, 2 acyl side, 3 side chain; linkers in the order of their positions; H or OH if unused. Positions of bridges follow the written chain, without caps; N, C: chain ends. Non-standard residues stand in square brackets, D forms with d. Residues, ends and D or L forms follow the SMILES beside them. *: point of attachment. X1 = NC1=N[C@@H]([C@H](N[*:1])C(=O)[*:2])C[C@H](O)N1; ΔAla(Z-3-ureido) = NC(=O)N/C=C(\N)C(=O)O; β3hOrn = NCCC[C@H](N)CC(=O)*; Dap = NC[C@H](N)C(=O)O
# Columns and labels:
# Assay in all cases: ALDHbr (CSC) cell proportion score relative to DMSO vehicle (ratio to DMSO); breast (SUM159) / gastric (MKN45) / pancreatic (PANC1) / colon cancer lines; ALDHbr cells have high ALDH activity and are rich in cancer stem cells (CSC); higher = more CSC (ALDHbr) cells remaining
# Details in all cases: 10 µM; 72 h
# [1] = tested on: MKN45
# [2] = tested on: PANC1
# [3] = tested on: SUM159
# [4] = tested on: T84
# 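Note: High-content imaging of ALDEFLUOR-stained cells with Hoechst-labelled nuclei in 384-well plates, triplicate wells, scored as Z-score against 0.1% DMSO vehicle, negative meaning fewer ALDHbr cells.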
SMILES,ALDHbr [1],ALDHbr [2],ALDHbr [3],ALDHbr [4]
O=C1[C@H]2CCCC[C@H]2C(=O)N1CCCCN1CCN(c2nsc3ccccc23)CC1 [Perospirone],0.307,0.672,0.45,0.602
COc1cc2nc(N3CCN(C(=O)C4COc5ccccc5O4)CC3)nc(N)c2cc1OC (configuration not stated) [Doxazosin mesylate],0.838,0.642,0.725,0.717
CCOC(=O)C1=C(C)NC(C)=C(C(=O)OC)C1c1cccc(Cl)c1Cl (configuration not stated) [Felodipine],1.25,0.78,1.72,0.975
C[C@@H](O[C@H]1OCCN(Cc2n[nH]c(=O)[nH]2)[C@H]1c1ccc(F)cc1)c1cc(C(F)(F)F)cc(C(F)(F)F)c1 [Aprepitant],0.698,1.92,1.28,0.654
NCCC[C@H](N)CC(=O)N[C@H]1CNC(=O)[C@H]([C@H]2C[C@H](O)NC(N)=N2)NC(=O)/C(=C/NC(N)=O)NC(=O)[C@H](CO)NC(=O)[C@H](CO)NC1=O [Viomycin sulfate] (β3hOrn-[Dap]SS[ΔAla(Z-3-ureido)][X1]; lactam 1-C),1.09,0.994,1.1,1.01
CCc1c2c(nc3ccc(OC(=O)N4CCC(N5CCCCC5)CC4)cc13)-c1cc3c(c(=O)n1C2)COC(=O)[C@]3(O)CC [Irinotecan hydrochloride trihydrate],0.167,1.97,1.39,0.616
Nc1ccc(S(=O)(=O)Nc2ccnn2-c2ccccc2)cc1 [Sulfaphenazole],0.889,0.645,1.02,0.914
Clc1ccc2c(c1)CCc1cccnc1C2=C1CCNCC1 [Desloratadine],1.18,1.12,0.649,0.592
CC1(C)S[C@@H]2[C@H](NC(=O)[C@H](NC(=O)N3CCNC3=O)c3ccccc3)C(=O)N2[C@H]1C(=O)O [Azlocillin sodium salt],1.07,0.9,1.06,1.02
Nc1nc(/C(=C/CC(=O)O)C(=O)N[C@@H]2C(=O)N3C(C(=O)O)=CCS[C@H]23)cs1 [Ceftibuten],1.22,1.01,0.856,1.12
Cc1cccc(C)c1OCC(=O)N[C@@H](Cc1ccccc1)[C@@H](O)C[C@H](Cc1ccccc1)NC(=O)[C@H](C(C)C)N1CCCNC1=O [Lopinavir],0.526,0.628,0.474,0.491
CCC[C@@H]1C[C@@H](C(=O)N[C@@H]([C@H]2O[C@H](SC)[C@H](O)[C@@H](O)[C@H]2O)[C@H](C)Cl)N(C)C1 [Clindamycin hydrochloride],0.937,0.489,1.12,0.993
Nc1ccc(S(=O)(=O)Nc2ncccn2)cc1 [Sulfadiazine],0.849,0.809,1.15,0.882
CC/C(=C(/CC)c1ccc(O)cc1)c1ccc(O)cc1 [Diethylstilbestrol],0.981,1,0.855,1.04
OCCOCCN1CCN(C(c2ccccc2)c2ccc(Cl)cc2)CC1 (configuration not stated) [Hydroxyzine dihydrochloride],1.1,1.05,1.06,0.795
CC[C@@H](CO)NCCN[C@@H](CC)CO [Ethambutol dihydrochloride],0.901,0.875,1.07,0.862
Nc1cc(-c2ccncc2)c[nH]c1=O [Amrinone],0.759,0.918,1.61,1.1
CN[C@@H]1[C@@H](O[C@H]2O[C@H](CO)[C@@H](N)[C@H](O)[C@H]2O)OC2C[C@@H](N)[C@@H](O[C@H]3[C@H](O)[C@@H](O)[C@H](N)C[C@@H]3N)OC2[C@@H]1O (some centres not stated) [Apramycin],0.89,0.972,0.912,0.99
CCCc1nn(C)c2c(=O)[nH]c(-c3cc(S(=O)(=O)N4CCN(C)CC4)ccc3OCC)nc12 [Sildenafil],0.852,0.62,0.992,0.994
O=C(O)COCCN1CCN(C(c2ccccc2)c2ccc(Cl)cc2)CC1 (configuration not stated) [Cetirizine dihydrochloride],1.03,1.01,1.05,0.831
Clc1ccccc1CN1CCc2sccc2C1 [Ticlopidine hydrochloride],1.04,0.887,1.01,1.06
CC1=C(/C=C/C(C)=C/C=C/C(C)=C/C(=O)O)C(C)(C)CCC1 [Retinoic acid],0.875,2.04,0.0693,0.589
O=C(c1ccccc1)c1ccc2n1CCC2C(=O)O (configuration not stated) [Ketorolac tromethamine],0.947,1.07,0.958,0.952
CN1CCCN=C1/C=C/c1cccc(O)c1 [Oxantel pamoate],0.981,0.934,0.799,0.977
CC(C)(CO)C(O)C(=O)NCCCO (configuration not stated) [Panthenol (D)],1.02,0.896,1.03,0.935
CC(=O)[C@H]1CC[C@H]2[C@@H]3C[C@H](C)C4=CC(=O)CC[C@]4(C)[C@H]3[C@@H](O)C[C@]12C [Medrysone],0.645,0.71,0.851,0.803
Cc1c(Cl)cccc1Nc1ccccc1C(=O)O [Tolfenamic acid],1.11,0.899,0.883,1.07

SMILES,ALDHbr [1],ALDHbr [2],ALDHbr [3],ALDHbr [4]
CCOC(=O)Nc1ccc2c(c1)N(C(=O)CCN1CCOCC1)c1ccccc1S2 [Moricizine hydrochloride],1.4,0.809,0.869,1.03
Nc1nc(NC2CC2)c2ncn([C@H]3C=C[C@@H](CO)C3)c2n1 [Abacavir Sulfate],0.955,0.908,1.24,0.906
Cc1c(NC(=O)c2cccnc2)c(=O)n(-c2ccccc2)n1C [Nifenazone],1.12,0.852,0.979,1.09
NC(=O)N/N=C/c1ccc([N+](=O)[O-])o1 [Nitrofural],0.547,0.714,0.66,0.635
CC(C)[C@H](N)C(=O)OCCOCn1cnc2c(=O)nc(N)[nH]c21 [Valacyclovir hydrochloride],0.966,0.786,0.997,0.996
C[C@H]1O[C@H](O[C@H]2[C@H](O)[C@@H](O)[C@@H](O[C@@H]([C@H](O)[C@@H](O)C=O)[C@H](O)CO)O[C@@H]2CO)[C@H](O)[C@@H](O)[C@@H]1N[C@H]1C=C(CO)[C@@H](O)[C@H](O)[C@H]1O [Acarbose],1.13,0.877,1.11,0.959
CCN1CCN(C(=O)N[C@@H](C(=O)N[C@@H]2C(=O)N3C(C(=O)O)=C(CSc4nnnn4C)CS[C@H]23)c2ccc(O)cc2)C(=O)C1=O [Cefoperazone dihydrate],1.13,0.916,0.87,1.07
CN(CCCN1c2ccccc2CCc2ccccc21)CC(=O)c1ccc(Cl)cc1 [Lofepramine],1.07,1.05,0.664,0.773
CC(C(=O)O)c1ccc(-c2ccccc2)c(F)c1 (configuration not stated) [Flurbiprofen],1.05,0.916,1,1.06
OC(CCN1CCCC1)(c1ccccc1)C1CCCCC1 (configuration not stated) [Procyclidine hydrochloride],1.05,1,0.946,1.01
Nc1ncn(C2OC(CO)C(O)C2O)c(=O)n1 (configuration not stated) [Azacytidine-5],0.618,0.997,0.61,1.76
CC(=O)NS(=O)(=O)c1ccc(N)cc1 [Sulfacetamide sodic hydrate],1.08,0.878,1.01,0.935
NC1CCN(c2c(F)cc3c(=O)c(C(=O)O)cn(C4CC4)c3c2Cl)C1 (configuration not stated) [Clinafloxacin],0.87,0.999,0.952,0.997
COc1cccc(N(C)C(=S)Oc2ccc3c(c2)CCCC3)n1 [Liranaftate],0.634,0.752,0.937,0.992
O=C(NCCN1CCOCC1)c1ccc(Cl)cc1 [Moclobemide],0.992,0.992,1.11,1.04
O=C(CCCN1CCC(O)(c2ccc(Cl)cc2)CC1)c1ccc(F)cc1 [Haloperidol],0.969,0.684,0.799,0.784
CS(=O)(=O)OCCCCOS(C)(=O)=O [Busulfan],0.986,1,0.922,0.903
Cc1c(OCC(F)(F)F)ccnc1C[S+]([O-])c1nc2ccccc2[nH]1 (configuration not stated) [Lansoprazole],1.21,0.829,1.68,0.764
CC(C)C[C@H](NC(=O)[C@@H](O)[C@H](N)Cc1ccccc1)C(=O)O [Ubenimex],0.34,0.878,0.697,0.976
"CN(Cc1cnc2nc(N)nc(N)c2n1)c1ccc(C(=O)N[C@@H](CCC(=O)O)C(=O)O)cc1 (racemic) [Amethopterin (R,S)]",0.134,0.856,0.632,0.445
CC(C)(Oc1ccc(C2CC2(Cl)Cl)cc1)C(=O)O (configuration not stated) [Ciprofibrate],1.02,0.93,1.03,1.08
CC[C@H](c1ccc(O)cc1)[C@@H](CC)c1ccc(O)cc1 [Hexestrol],0.93,0.872,0.773,0.898
CCC1(c2ccccc2)NC(=O)N(C)C1=O (configuration not stated) [Mephenytoin],1.09,0.923,0.86,0.914
COc1cc([S+](C)[O-])ccc1-c1nc2cccnc2[nH]1 (configuration not stated) [Sulmazole],1.3,0.63,1.24,1.28
Nc1nc(=O)n([C@@H]2CS[C@H](CO)O2)cc1F [(-)-Emtricitabine],0.894,0.941,1.36,0.96
CC[C@H]1OC(=O)[C@H](C)[C@@H](O[C@H]2C[C@@](C)(OC)[C@@H](O)[C@H](C)O2)[C@H](C)[C@@H](O[C@@H]2O[C@H](C)C[C@H](N(C)C)[C@H]2O)[C@](C)(O)C[C@@H](C)[C@@H]2N[C@@H](COCCOC)O[C@H]([C@H]2C)[C@]1(C)O [Dirithromycin],1.18,0.744,1.08,0.946
